# Assay results published in patent publication US7754852B2, “Natriuretic polypeptides” (Mayo Foundation for Medical Education and Research, priority 2007, dated 2010).
# Not every detail of the peptide structures is certain; ends, links or a residue may be inferred. Where a SMILES comes first, the peptide text is derived from it. Bridges are numbered along the chain shown (N, C = ends).
# Tests used:
# normal anesthetized dogs [1] = assay: Cardiorenal function in normal anesthetized dogs, consecutive i.v. infusions of 10, 50 and 100 ng/kg/minute; type: in vivo, dog
# Procedure: Cardiorenal function was assessed in three normal anesthetized dogs. […] Tubular Na^+ reabsorption and GFR were assessed by clearance of Li^+ and inulin, respectively. Neurohormones were quantified by radioimmunoassays. Data were analyzed by repeated measures ANOVA followed by Dunnett's test.
# normal anesthetized dogs [2] = assay: Time course of plasma cGMP activation in vivo, i.v. infusion at 14 pmol/kg/min for 75 minutes; parameters: species or system dog
# [3] = system: isolated canine glomeruli; assay: cGMP stimulation in isolated canine glomeruli; type: cell-based; settings: 10^−5 M
# Procedure: Experiments were conducted to determine whether CU-NP directly stimulates cGMP in isolated glomeruli, and to compare the cGMP-activating actions of CU-NP with CNP, URO, and CNP-C, which consisted of the full-length 22-AA of CNP with a duplicate of the N-terminus fused in the C-terminal position. Glomeruli were isolated upon harvest of normal canine kidneys. CU-NP, CNP, URO, and CNP-C (10^−5 M) were incubated with glomeruli vs. control. Cyclic GMP was measured by RIA, with correction for protein levels. CU-NP and URO elicited greater cGMP responses than respective controls (P<0.01), but without difference between groups. CU-NP and URO stimulated greater cGMP responses vs. CNP and vs. CNP-C (P<0.001).
# normal anesthetized dogs [4] = assay: Hemoconcentrating effects (hematocrit) of i.v. infusion at 14 pmol/kg/minute in normal anesthetized dogs; type: in vivo, dog
# Procedure: Three human NPs (BNP, CNP, URO, and CU-NP were studied to evaluate their effects on vascular permeability as manifested by an increase in hematocrit. Normal anesthetized dogs received i.v. infusions of BNP (n=7), CNP (n=6), URO (n=5), or CU-NP (n=6) at 14 pmol/kg/minute. Blood was collected in EDTA tubes on ice and centrifuged. Data are reported for base-line and at 60 minutes of infusion. In addition to increasing hematocrit (Table 5), CU-NP reduced PCW pressure in vivo (baseline 6±0.9 mmHg, 60 minutes 3±0.9 mmHg; P<0.05). Thus, hemoconcentrating effects of CU-NP may contribute to its cardiac-unloading actions in vivo.
# normal anesthetized dogs [5] = assay: In vivo renal perfusion pressure, i.v. infusion at 14.14 pmol/kg/minute for 75 minutes; parameters: species or system dog; settings: RPP estimated by MAP−RAP
# Procedure: Studies were conducted to determine the in vivo actions of CNP, CU-NP and URO on renal perfusion pressure (RPP, as estimated by MAP-RAP), as RPP is a key determinant of renal function. Given the GFR-enhancing action of CU-NP, in vitro studies also were done to test the hypothesis that CU-NP (unlike CNP) also activates NPR-A, a potent renal acting NP receptor. Equimolar doses of CU-NP, human CNP, or human URO were intravenously infused at 14.14 pmol/kg/minute into 17 normal anesthetized dogs for 75 minutes. RPP was assessed at baseline and at 60 minutes of infusion. Data are expressed as mean±SEM. Clearances were measured from the 16th to the 45th minute and from the 46th to the 75th minute following initiation of peptide infusion. Within each group, 2-tailed paired t-test was used to compare RPP at 60 minutes of peptide infusion vs. baseline. Comparisons between groups were made by two-way ANOVA followed by Bonferroni post-test.
# [6] = 10 ng/kg/minute i.v. infusion, 45 minutes
# [7] = 50 ng/kg/minute i.v. infusion, 45 minutes
# [8] = 100 ng/kg/minute i.v. infusion, 45 minutes
compound,measurement,setting,value
CC[C@H](C)[C@@H]1NC(=O)[C@H](CCCNC(=N)N)NC(=O)[C@H](CC(=O)O)NC(=O)[C@H](CC(C)C)NC(=O)[C@H](CCCCN)NC(=O)[C@H](CC(C)C)NC(=O)CNC(=O)[C@H](Cc2ccccc2)NC(=O)[C@@H](NC(=O)[C@H](CO)NC(=O)[C@H](CO)NC(=O)[C@H](CCCNC(=N)N)NC(=O)[C@H](CCCNC(=N)N)NC(=O)[C@H](CC(C)C)NC(=O)[C@H](CO)NC(=O)[C@H](CCCNC(=N)N)NC(=O)[C@@H]2CCCN2C(=O)[C@H](C)NC(=O)[C@@H](N)[C@@H](C)O)CSSC[C@@H](C(=O)N[C@@H](CC(N)=O)C(=O)N[C@@H](CO)C(=O)N[C@@H](Cc2ccccc2)C(=O)N[C@@H](CCCNC(=N)N)C(=O)N[C@@H](Cc2ccc(O)cc2)C(=O)O)NC(=O)CNC(=O)[C@H](CC(C)C)NC(=O)CNC(=O)[C@H](CO)NC(=O)[C@H](CCSC)NC(=O)[C@H](CO)NC(=O)CNC1=O [CU-NP] (H-TAPRSLRRSSCFGLKLDRIGSMSGLGCNSFRY-OH; disulfide 11-27),DFRNa+,normal anesthetized dogs [1]; [6],98 ± 0.5%
same,GFR,normal anesthetized dogs [1]; [6],39 ± 1 mL/min
same,MAP,normal anesthetized dogs [1]; [6],129 ± 13 mmHg
same,Na^+ excretion,normal anesthetized dogs [1]; [6],33 ± 13 μEq/min
same,PCWP,normal anesthetized dogs [1]; [6],3.8 ± 1 mmHg
same,PFRNa+,normal anesthetized dogs [1]; [6],73 ± 4.5 %
same,Plasma renin activity,normal anesthetized dogs [1]; [6],5 ± 1 ng/mL/h
same,RAP,normal anesthetized dogs [1]; [6],0.9 ± 0.9 mmHg
same,Renal cGMP generation,normal anesthetized dogs [1]; [6],534 ± 94 pmol/min
same,Urine flow,normal anesthetized dogs [1]; [6],0.3 ± 0.07 mL/min
same,angiotensin II levels,normal anesthetized dogs [1]; [6],10 ± 0.4 pg/mL
same,DFRNa+,normal anesthetized dogs [1]; [7],92 ± 1.6 %
same,GFR,normal anesthetized dogs [1]; [7],43 ± 4 mL/min
same,MAP,normal anesthetized dogs [1]; [7],128 ± 10 mmHg
same,Na^+ excretion,normal anesthetized dogs [1]; [7],235 ± 72 μEq/min
same,PCWP,normal anesthetized dogs [1]; [7],2.5 ± 1 mmHg
same,PFRNa+,normal anesthetized dogs [1]; [7],54 ± 1.8 %
same,Plasma renin activity,normal anesthetized dogs [1]; [7],3 ± 1 ng/mL/h
same,RAP,normal anesthetized dogs [1]; [7],0.6 ± 1 mmHg
same,Renal cGMP generation,normal anesthetized dogs [1]; [7],1301 ± 60 pmol/min
same,Urine flow,normal anesthetized dogs [1]; [7],1.5 ± 0.5 mL/min
same,angiotensin II levels,normal anesthetized dogs [1]; [7],5 ± 0.4 pg/mL
same,DFRNa+,normal anesthetized dogs [1]; [8],90 ± 0.8 %
same,GFR,normal anesthetized dogs [1]; [8],53 ± 3 mL/min
same,MAP,normal anesthetized dogs [1]; [8],120 ± 11 mmHg
same,Na^+ excretion,normal anesthetized dogs [1]; [8],342 ± 60 μEq/min
same,PCWP,normal anesthetized dogs [1]; [8],1.7 ± 0.9 mmHg
same,PFRNa+,normal anesthetized dogs [1]; [8],55 ± 2.6 %
same,Plasma renin activity,normal anesthetized dogs [1]; [8],3 ± 1 ng/mL/h
same,RAP,normal anesthetized dogs [1]; [8],−0.2 ± 0.8 mmHg
same,Renal cGMP generation,normal anesthetized dogs [1]; [8],4608 ± 370 pmol/min
same,Urine flow,normal anesthetized dogs [1]; [8],1.9 ± 0.3 mL/min
same,angiotensin II levels,normal anesthetized dogs [1]; [8],7 ± 1 pg/mL
same,DFRNa+,normal anesthetized dogs [1]; post-infusion,97 ± 0.6 %
same,GFR,normal anesthetized dogs [1]; post-infusion,36 ± 2 mL/min
same,MAP,normal anesthetized dogs [1]; post-infusion,124 ± 13 mmHg
same,Na^+ excretion,normal anesthetized dogs [1]; post-infusion,66 ± 12 μEq/min
same,PCWP,normal anesthetized dogs [1]; post-infusion,3.2 ± 1 mmHg
same,PFRNa+,normal anesthetized dogs [1]; post-infusion,62 ± 3.5 %
same,RAP,normal anesthetized dogs [1]; post-infusion,0.1 ± 0.9 mmHg
same,Renal cGMP generation,normal anesthetized dogs [1]; post-infusion,1086 ± 27 pmol/min
same,Urine flow,normal anesthetized dogs [1]; post-infusion,0.3 ± 0.05 mL/min
same,DFRNa+,normal anesthetized dogs [1]; pre-infusion,99 ± 0.3%
same,GFR,normal anesthetized dogs [1]; pre-infusion,31 ± 5 mL/min
same,MAP,normal anesthetized dogs [1]; pre-infusion,129 ± 17 mmHg
same,Na^+ excretion,normal anesthetized dogs [1]; pre-infusion,1.9 ± 0.9 μEq/min
same,PCWP,normal anesthetized dogs [1]; pre-infusion,4.6 ± 0.7 mmHg
same,PFRNa+,normal anesthetized dogs [1]; pre-infusion,92 ± 0.9%
same,Plasma renin activity,normal anesthetized dogs [1]; pre-infusion,9 ± 2 ng/mL/h
same,RAP,normal anesthetized dogs [1]; pre-infusion,1.5 ± 1 mmHg
same,Renal cGMP generation,normal anesthetized dogs [1]; pre-infusion,356 ± 36 pmol/min
same,Urine flow,normal anesthetized dogs [1]; pre-infusion,0.09 ± 0.01 mL/min
same,angiotensin II levels,normal anesthetized dogs [1]; pre-infusion,18 ± 1 pg/mL
same,plasma cGMP in vivo vs. pre-I,"normal anesthetized dogs [2]; 14 pmol/kg/min i.v. for 75 minutes, all time points during I and post-I",increased
same,cGMP activation as compared to CNP,"normal anesthetized dogs [2]; 14 pmol/kg/min i.v., 25 minutes I through 30 minutes post-I, P<0.001",greater extent
same,cGMP (mean ± SEM),[3],0.73 ± 0.09 fmol/µg
same,Hematocrit (mean ± SEM),normal anesthetized dogs [4]; 60 min of i.v. infusion at 14 pmol/kg/minute,41 ± 1 %
same,PCW pressure,normal anesthetized dogs [4]; 60 minutes of i.v. infusion at 14 pmol/kg/minute,3±0.9 mmHg
same,Hematocrit (mean ± SEM),normal anesthetized dogs [4]; baseline,38 ± 1%
same,PCW pressure,normal anesthetized dogs [4]; baseline,6±0.9 mmHg
same,RPP (mean ± SEM),normal anesthetized dogs [5]; 60 minutes of i.v. infusion at 14.14 pmol/kg/minute,134 ± 4 mmHg
same,RPP (mean ± SEM),normal anesthetized dogs [5]; Pre-I,135 ± 4 mmHg
